B1: His×6-YY1([…]) (domain or fragment)
chain: MASGDTLYIATDGSEMPAEIVELHEIEVETIPVETIETTVVGEEEEEDDDDEDGGGGDHGGGGGHGHAGHHHHHHHHHHHPPMIALQPLVTDDPTQVHHHQEVILVQTREEVVGGDDSDGLRAEDGFEDQILIPVPAPAGGDDDYIEQTLVTVAAAGKSGGGGSSSSGGGRVKKGGGKKSGKKSYLSGGAGAAGGGGADP[about 20 residues left out here]
B2: His×6-YY1([…]) (domain or fragment)
chain: not shown
B3: His×6-YY1([…]) (domain or fragment)
chain: QEVILVQTREEVVGGDDSDGLRAEDGFEDQILIPVPAPAGGDDDYIEQTLVTVAAAGKSGGGGSSSSGGGRVKKGGGKKSGKKSYLSGGAGAAGGGGADP[about 20 residues left out here]

What follows are binders tested against His×6-YY1(wt) (human, UniProt P25490) (assay: SPR).

Binder | Kd [nM]
B1 | 193
B2 | 147
B3 | 563

Reference: paper PMC8996997 (2022)
